This is one part of the list.
B1: chr14:53039561:53039662:-|3pUTR|ENSG00000100523|unk|total|mutant (ssRNA)
RNA: GGGAGUUCUACAGUCCGACGAUCUCAAACUAUAUUUUUGUUACAGCAAACUACAUUCCAUUUGCCUUUAAAUGCUUGCAUUUCCGUUAUUGUACUGGCUACCUGUUUUUGUCUGCCCAGCAUCCUGUUUCCCCUCCUUUUGGACAACAGAGGAUUGAGCAUCA
B2: chr4:83462471:83462902:-|CDS|ENSG00000163322|control|control|control (ssRNA)
RNA: GGGAGUUCUACAGUCCGACGAUCUUCAAGAGAUCUCGGUUGUUAGAUACACAAGACAAACGAUCUAAAGCAGAUACUGGUAGUAGUAACCAAGAUAAAGCAUCCAAAAUGAGCAGCCCAGAAACAGAUGAAGAAAUUGAAAAGCAACAGAGGAUUGAGCAUCA
B3: chr12:56204332:56204433:-|3pUTR|ENSG00000181852|unk|total|mutant (ssRNA)
RNA: GGGAGUUCUACAGUCCGACGAUCUUUUGCCUUUCUCUCACCUUAAUUCCCUUUCUUCCUUACUUUGUUACCUACCCUUAUCUCCGUGCUAACUUCUCUUUCAGGAGGAUGUCUGGGAGCCGUGUGCACUUCACAGCUGCUUUCCAACAGAGGAUUGAGCAUCA
B4: chrX:119243474:119243703:+|3pUTR|ENSG00000101856|msi1|FALSE|unique (ssRNA)
RNA: GGGAGUUCUACAGUCCGACGAUCGGUAUUUCCCAAAACAGGUAAAAAUCUUAAAUGUGCACCAAGAGCAAAGGAUCAACUUUUAGUCAUGAUGUUCUGUAAAGACAACAAAUCCCUUUUUUUUUCUCAAUUGACUUAACUGCACAACAGAGGAUUGAGCAUCA
B5: ENSG00000103257:stop:overlap|stop_codon|ENSG00000103257|stop_codon|NA|stop_codon (ssRNA)
RNA: GGGAGUUCUACAGUCCGACGAUCGCAUCUUCUCCACGACCGUCCUGUGUCAGAAGCUCAUGCAGGUGGUCCCCCAGGAGACAUAGCCAGGAGGCCGAGUGGCUGCCGGAGGAGCAUGCGCAGAGGCCAGUUAAAGUAGAUCACCAACAGAGGAUUGAGCAUCA
B6: chr4:168927217:168927233:+|3pUTR|ENSG00000129116|msi1_unk|FALSE|overlapping (ssRNA)
RNA: GGGAGUUCUACAGUCCGACGAUCAACCACCCAAAUGACCAAGGCAUAUAUAGUAUUUGGAGGAAUCAGGGGUUUGGAAGGAGUAGGGAGGAGAAUGAAGGAAAAUGCAACCAGCAUGAUUAUAGUGUGUUCAUUUAGAUAAAACAACAGAGGAUUGAGCAUCA
B7: ENSG00000198589:be:win_5101|CDS|ENSG00000198589|bound_else_gene|NA|bound_elsewhere_windowed (ssRNA)
RNA: GGGAGUUCUACAGUCCGACGAUCCCACCAGCCUGCCUUGGAGCCCUUGGUGAUCUAUCUGUGGAACAACCCGUGCAGUUCAGAUCUUUUGACAGAAGUGUCAUUGUUGCAGCAAAAAAGUCAGCAGUCUCACCUUCCACCUUUCAACAGAGGAUUGAGCAUCA
B8: chr4:17843545:17843646:+|3pUTR|ENSG00000109805|msi1|FALSE|unique (ssRNA)
RNA: GGGAGUUCUACAGUCCGACGAUCCUGUGCGCUUCCACGUUACUUUGGCCUGUAUUAAAGCAGUAGAGCAGCAUCAGUUAUUAUAGUCCAGAAAAAGUGUGCAUCAGUCAGUCACACAGAUUUAUCACAAUCUGAGGUGGGCCUCAACAGAGGAUUGAGCAUCA
B9: chr21:36753219:36753320:-|3pUTR|ENSG00000159267|msi1|FALSE|bound_elsewhere (ssRNA)
RNA: GGGAGUUCUACAGUCCGACGAUCGUUUCAGAUUUACUCUGAAAUGUGGAGCAUUCCUGCAAGACUGUGCAGCUCACGGAAUAUAGAAGACAUGGCAUUUUACUCAGAAGUCAUAAGUUUUUGCCCCCCUCAUUUACCUCGUAUCAACAGAGGAUUGAGCAUCA
B10: chr2:200823707:200823808:+|3pUTR|ENSG00000082153|msi1|FALSE|bound_elsewhere (ssRNA)
RNA: GGGAGUUCUACAGUCCGACGAUCUGAGUAACUUUGAUAAAGUUUUUCAUGCACAGGCAAAAUGUAUUCACUAGAUUUCUACGUAGUGAUCUGCUUUUACUUUGUAAUUUGUAGUUCUCAAAAGACUUUUUUUUAAAAAAAUAACAACAGAGGAUUGAGCAUCA
B11: chr20:25297698:25297799:+|3pUTR|ENSG00000100994|msi1|total|mutant (ssRNA)
RNA: GGGAGUUCUACAGUCCGACGAUCCCCAAGAGAGAGGGCAGGGAACAGGCUACUGUCCUUCCCUGUGGAAUUGCCGAGAAAUCCCGCACCUUGCAUGCUGGAUCUGGGCUGCGGGGAGGCUCUUUUUCUCCCUGGCCUCCAGUGCAACAGAGGAUUGAGCAUCA
B12: ENSG00000070961:be:win_2551|CDS|ENSG00000070961|bound_else_gene|NA|bound_elsewhere_windowed (ssRNA)
RNA: GGGAGUUCUACAGUCCGACGAUCAGCAUCUCAAAAUUCCUUCAGUUCCAACUUACUGUUAAUGUAGUAGCAGUGAUUGUUGCUUUUACGGGCGCCUGCAUUACUCAAGACUCACCGCUUAAGGCUGUGCAGAUGCUGUGGGUACAACAGAGGAUUGAGCAUCA
B13: chr1:214641902:214642005:+|CDS|ENSG00000117724|unk|total|mutant (ssRNA)
RNA: GGGAGUUCUACAGUCCGACGAUCAGAAAUCAAUGUAAUUUUAAACCUCAGAUGGAUCUUGAAGUUAAAGAAAUUUCUCCCGACCGUUAUAAUGCGCAGUUGGUGCAAUCCGAAGCUAUGCUAAGAAAUAAGGAAUUAAAACUUCAACAGAGGAUUGAGCAUCA
B14: chr18:9400975:9401076:+|3pUTR|ENSG00000128791|msi1|FALSE|unique (ssRNA)
RNA: GGGAGUUCUACAGUCCGACGAUCUAUAAAAAUAGAUAAUGCUCUUGGACACAUUUUGUAUUAUUCAUGAUCUGAAUAGUAGUUAGUUAAAAGAUCAUUUGUAAUAUUAUGAUCAACUGUUAUAAAUUAAGGUCUUAAUACCUUCAACAGAGGAUUGAGCAUCA
B15: chr16:70157515:70157662:+|3pUTR|ENSG00000090857|msi1|total|mutant (ssRNA)
RNA: GGGAGUUCUACAGUCCGACGAUCCUCCCUAUAAUUUUCUUCAUCUCUUGCUAAUCUCUAUAAUAAGGUUGCUUUUUCUUUCUCCGUUGAGUAAACAAGUAAGCCACAGUGUUUGAAAGGGAAAAACCAUAUUGCCUUGUGUGUCAACAGAGGAUUGAGCAUCA
B16: chrX:13708825:13708941:+|CDS|ENSG00000123595|unk|total|mutant (ssRNA)
RNA: GGGAGUUCUACAGUCCGACGAUCGAGUUCACUUAUGAACAGAUAUGUAACUAAUAAGUUUGAUACCCAGCUCUUCCAUACAACCGGUGUGGAAUUUUUAAAUAAAGAUUUGGAAGUGGAUGGACAUUUUGUUACCAUGCAGAUCAACAGAGGAUUGAGCAUCA
B17: chr18:5392435:5392536:-|3pUTR|ENSG00000082397|msi1|FALSE|unique (ssRNA)
RNA: GGGAGUUCUACAGUCCGACGAUCAAGCCUUAAACUGUACAGAAUUUCCACUGUAAUUAAAACUAUUUAGUGUUAGUUAUAAAUAGCCUUCAAAAAGAGAGAUUCUCCAUUACACGAUCACCUGCAUCACAGCCCAUGGUGAAUCAACAGAGGAUUGAGCAUCA
B18: chr8:76864132:76864233:+|CDS|ENSG00000091656|msi1|FALSE|bound_elsewhere (ssRNA)
RNA: GGGAGUUCUACAGUCCGACGAUCUCAAGCUUGCACAAAGAGAAAACAAUCAAACAAGCAAUGAGAAAUGCCAAAGAGCAUGUUAGAUUAUUACCUCACUCAGUCUGCUCCCCUAAUCCUAACACCACAUCUACCUCGCAGUCUCAACAGAGGAUUGAGCAUCA
B19: chr1:149903635:149903737:-|3pUTR|ENSG00000159164|unk|total|mutant (ssRNA)
RNA: GGGAGUUCUACAGUCCGACGAUCGGCUGCUUUCUUUGGUGCCCUCCCCUCACCCCACUGCCGCUGUGACGUGUUGCCGUUUUCCGAUGUUUGUAAAAUGUUUAAAAAAAUGUUAAAAGGAAAAAAGUGAAAAUAACAAAAAAGCAACAGAGGAUUGAGCAUCA
B20: chr7:152649051:152649153:-|CDS|ENSG00000196584|unk|total|mutant (ssRNA)
RNA: GGGAGUUCUACAGUCCGACGAUCAGCUCUGAAGAAAUAAUCAAAUACUGCCUGGGAAGAUUUUUUUUGGUGUACUGCAGCCGCCGCACCCACUUACUUCUUACACUUUACUCACCCGAAAGUAUGUUUUGCCGUCACCCAUCUCAACAGAGGAUUGAGCAUCA
B21: chr6:109481629:109481730:-|CDS|ENSG00000112365|unk|total|mutant (ssRNA)
RNA: GGGAGUUCUACAGUCCGACGAUCGCUCAGUUCUUAAAAGUCUAUGACCUGGUAAAGGCUUACACAGACUUCCAAAAUAAUCACCGCUCCCCAAAGCCAACAACUUUGAACACUGCUGGUGCCCCAGUGGUUGUUAUCUCUAAUCAACAGAGGAUUGAGCAUCA
B22: chr22:40861067:40861994:-|CDS|ENSG00000172404|control|control|control (ssRNA)
RNA: GGGAGUUCUACAGUCCGACGAUCGAAAGUGAUCAAGAAAGAGAAGCUGAAGAUAAUGGAGAGUUGACAUUUUUUCUUGUAAAUAGUGUGGCCAAUGAAGAGGGCUUUGCAAAAGAAUGCAGCUGGAGAACACAGUCAUUCAACCAACAGAGGAUUGAGCAUCA

biological target: MSI1 full-length (mouse, UniProt Q61474 1-362); experiment: nsRBNS (natural sequence RNA bind-n-seq); RBNS binding buffer (assumed for nsRBNS): 25 mM Tris pH 7.5, 150 mM KCl, 3 mM MgCl2, 0.01% Triton X-100, 500 ug/ml BSA, 20 U/ml SUPERase-In, 4 C; UNK is unkempt and MSI1 is Musashi-1; names of the RNAs are library labels; protein concentration not given here; high values mean tight binding
Sequence of UniProt Q61474 (Q61474 whole entry): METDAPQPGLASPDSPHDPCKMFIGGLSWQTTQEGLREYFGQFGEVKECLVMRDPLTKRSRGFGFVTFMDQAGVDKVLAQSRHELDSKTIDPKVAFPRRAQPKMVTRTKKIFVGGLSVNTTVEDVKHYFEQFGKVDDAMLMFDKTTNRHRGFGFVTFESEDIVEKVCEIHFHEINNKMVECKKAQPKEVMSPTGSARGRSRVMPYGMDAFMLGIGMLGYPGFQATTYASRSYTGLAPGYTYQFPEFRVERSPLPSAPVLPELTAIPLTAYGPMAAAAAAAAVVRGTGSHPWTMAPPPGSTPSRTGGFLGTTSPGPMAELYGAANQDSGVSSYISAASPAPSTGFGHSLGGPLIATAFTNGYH

| Binder | binding signal [enrichment R] |
| --- | --- |
| B1 | 0.508 |
| B2 | 1.88 |
| B3 | 1 |
| B4 | 0.595 |
| B5 | 0.357 |
| B6 | 4.58 |
| B7 | 0.584 |
| B8 | 4.57 |
| B9 | 0.727 |
| B10 | 1.33 |
| B11 | 0.413 |
| B12 | 0.491 |
| B13 | 0.761 |
| B14 | 24 |
| B15 | 0.951 |
| B16 | 0.493 |
| B17 | 4.8 |
| B18 | 1.24 |
| B19 | 0.476 |
| B20 | 0.65 |
| B21 | 0.421 |
| B22 | 0.663 |

Source: article PMC12136788
